Test results from the supplement of paper PMC3334620.
Whole data set: some 33,000 sequences, median “E-score (-0.5 to 0.5)” near -0.016, cut for the highest 2% near 0.31. The list shows a part of the results.

These sequences were tested against Cst6 (UniProt P40535) (assay: PBM E-score (8-mer binding enrichment) (E-score (-0.5 to 0.5)); higher = stronger / more preferred TF binding; most listed sequences are background and not binding sites). Settings: protein concentration: 200 nM; construct: GST-DNA-binding domain.
Method in brief: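 Yeast transcription factors carrying a GST tag, as full-length proteins or DNA-binding domains, were produced by PURExpress in vitro transcription/translation. About 100-200 nM protein was applied to universal all-10-mer Agilent arrays, double-stranded by primer extension on fresh or once-stripped slides. Bound protein was detected with fluorescent anti-GST, and scans were normalised with masliner. The Universal PBM Analysis Suite gave each ungapped eight-base word, pooled with its reverse complement, an E-score, a modified Wilcoxon-Mann-Whitney statistic.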

Sequence	PBM E-score
TCCACTCA	-0.0386
GTGTGCGA	-0.135
CGGTCGAC	-0.185
GTTGAGGA	0.104
AAAATAAA	0.274
ATGTTCTC	-0.0109
CTACTTTC	0.0613
AGCCGGGA	-0.0833
ATGTCAGC	0.225
ACGGTTCT	-0.0103
CGCGGCGA	0.27
AACGGACG	0.00886
AGAGTGAT	0.00831
CTTTAACA	0.145
GTTAATTA	0.277
ATGATCGC	0.085
CCCCTCTC	-0.433
AGCGGGAA	0.0619
ATGACACA	0.349
CTTCCTCA	-0.149
AATTGATA	0.296
AGATCCTG	-0.188
CAGTACCA	-0.103
GTTACGCA	0.266
CCGCATCA	0.196

Sequence	PBM E-score
CAGTGGAA	-0.0929
CCTTAACC	-0.221
AATTGACG	0.259
CGGATACA	0.0638
ACGATTAC	0.262
GATTAGGC	0.0681
CATGGCCA	-0.207
CCAGAGCA	-0.146
CTACAAGC	-0.0485
GGTAGCGA	-0.227
CTCGTTCC	-0.121
ACAAAATG	0.244
ATACGCTG	-0.107
TCCTATCA	-0.157
ATTCTATA	0.156
CATGGGCG	0.0638
CTAAGGTC	-0.115
GGACGAGA	-0.014
GCCTGAGA	-0.179
AAGAACTC	0.0579
ATGTCATG	0.425
GCAAGCAC	-0.278
TATACACA	0.0853
CGAGACCA	-0.0838
CGTCACAA	0.4

Sequence	PBM E-score
ATTCGTAA	0.293
ATCATGTA	0.209
GATACCGC	-0.0789
CAGTTAGA	0.0747
AATATTTC	0.27
AGTTTGCG	-0.0314
TAGGAGCA	-0.198
CTGCCCTA	-0.202
AAGAATGG	-0.116
CGATCGTA	-0.0892
GATGTCGA	0.0813
CTAAGCCC	-0.295
CTACCTAG	-0.231
AAGGTAAT	0.129
CGAGGGAC	-0.349
AACTGGCG	0.0737
GCACGACA	-0.0194
TCGAGAGA	-0.135
ACGGAATC	0.0733
AAAAGTCG	-0.0593
GTGATTAA	0.269
GATTCTAC	0.0813
CAATCTCA	-0.0515
AAACCAGT	-0.0635
CGGCCGCA	0.0199

Sequence	PBM E-score
AACTCCAT	-0.0241
GCGGTTCC	-0.104
AAACGCGT	0.0447
GCAGCCAC	-0.203
ATACTCCA	-0.0155
CCCGGTTA	-0.198
ACCCTGTG	-0.0662
CGAACTCA	-0.164
AGTTTGAG	0.0309
AGTATGAA	0.0821
AGACTGCC	0.0708
CACCACCG	-0.255
ACTAAGCT	0.0716
AGAAGCGG	-0.107
CCGTGGGC	-0.116
AGCCAGTC	-0.244
ATGACGAA	0.472
CTACCAGC	-0.186
ACTCGGAC	-0.156
CAGAGGGC	-0.181
ACTACAGG	-0.0765
CGGCACCG	0.181
AATGCCGC	0.284
CACGACTC	-0.0976
GAACAACC	0.0203

Sequence	PBM E-score
CAATGCTC	0.0473
ATTGTAAG	-0.0822
CAAACTTG	-0.0352
CATAGTAG	-0.0432
CTATGAGC	-0.0336
AAGTCCCC	-0.336
AACCCGGG	-0.199
GAGGGTGA	0.00352
TAGCTAGA	0.0187
AAGTACGG	0.00603
ATGAGGCA	0.118
GACGTTGC	0.187
ATATCATA	0.315
ATATGCGC	0.0289
AGGTACCC	-0.362
CTTATAGC	-0.00966
CATCCAAC	0.157
GCAGTCGC	-0.0904
ATAGGGGA	-0.247
GGCCGTGA	0.14
CCACCGAC	-0.163
AAAGAGAT	-0.00327
TACAGATA	0.138
AATCCTGC	0.144
ACAACGGT	-0.136

Sequence	PBM E-score
ACACGGTA	0.0637
AAACGATG	0.194
TAGCTGCA	-0.201
ATATGGGC	-0.00349
TACACCGA	-0.18
ATATGCCA	0.118
AACCCGGT	-0.276
GAAAAGGC	-0.00087
AACACATA	0.251
GTGCCTGA	-0.208
TCAACAAA	0.168
ACGCGCAC	0.0413
GAAGAGCA	-0.0791
CAAGAGCA	-0.183
ATCCACCA	-0.011
CCACGCAA	0.043
CTTGCTTA	-0.166
GAAGCTCA	-0.121
CGCCTCCC	-0.0931
AGGCAGCC	-0.155
AAAACGGG	0.147
AATTGGGG	-0.155
GCTCAGAC	-0.091
AACCCGTT	-0.124
ACTCGAGT	0.135

Sequence	PBM E-score
CACCCAGC	-0.131
AGAATGAA	0.207
TAGTTGGA	-0.0265
TCGGCTAA	-0.0455
AGACGGTA	-0.115
CCAGTTAC	-0.132
ATCCCAGG	-0.234
CCTAAAAA	0.12
TGGCAAAA	0.212
ACAATTAT	0.289
ATTTGTGG	0.0944
ACCAGACT	-0.193
ACGAAGTG	0.116
CTTAAATC	0.123
TCAAGTAA	0.164
GCGTTCAA	0.0369
ATAAGCCG	-0.0888
CTCGTTCA	0.022
CCCGTCGG	-0.0747
GTTCACTA	-0.0774
CAATTGCG	0.228
AATGTTCC	-0.021
AGGTCATC	0.231
GCCCCAAC	-0.0637
GAAGAGCC	0.0432

Sequence	PBM E-score
AGTCCGTA	-0.202
CCCCTATC	-0.333
ACCGCACG	0.0528
ACTCGCAC	-0.239
ATATAGTG	0.197
ACATAGCG	-0.00759
CTTTGCAC	0.00533
CAGGAGAC	-0.112
GCATCCTA	-0.0937
ACAGCCTA	0.0738
ATCAACTG	0.0153
AAGAGGTC	-0.123
GCCGTTAA	0.103
CCGCTGTA	-0.119
CGCCCACG	-0.0894
CAATCGCA	0.156
ACGACTCA	-0.133
GTCACTTA	0.331
ATGGGCCG	-0.222
TTAATTAA	0.0995
GACGCATC	0.0635
CGCCTAGA	-0.132
CATAGGCA	-0.0341
GGGAAGTA	-0.0337
TCCCCGAA	-0.169

Sequence	PBM E-score
GGTCCTAA	-0.0909
ATGGTGTC	0.116
ACGATTCC	-0.0152
CAATGGGA	-0.063
ATGGTATC	-0.0172
GTTATTGA	0.145
ACCCTGAC	-0.171
ATTCGTCA	0.423
GGATCTGA	-0.164
AGTATCTA	0.167
CCTTAGGC	-0.238
AGTGTGCG	-0.191
AAATCCCA	-0.0398
CCAACCGC	-0.097
GGTGGCTA	-0.0622
TCCGCCCA	-0.36
TAGGTATA	0.0331
AAATATGC	0.12
GAATGGAC	-0.0991
CCGTATTA	0.2
GTTGCAGA	0.0297
TTCTACAA	0.0764
TCCCTTAA	-0.125
AAGATTAT	0.149
CCGGGTCC	-0.363

Sequence	PBM E-score
TAATACAA	0.19
GATTATTA	0.14
AATTTAGA	0.128
AAGTACTC	-0.103
CAATAGTA	0.0411
AAATCCAG	-0.0456
GTTCGTAA	0.155
GTTGTCCA	-0.13
AGAATGAT	0.231
CTTTAGTA	0.0571
AGCTGTGA	0.135
CGGCGATC	0.15
CCGGCAGA	-0.282
GCGCCGGA	-0.109
GCTTAACA	-0.0462
CGGCCCCA	-0.208
ATCGAGCC	-0.0393
TCGGTGCA	-0.26
CTCACATA	0.0251
TAGTGGAA	-0.0995
TGAAGGCA	0.0356
CATGCATA	0.143
AGATTAGC	-0.0454
GTGCAGAA	0.0789
AGAGACAG	-0.168

Sequence	PBM E-score
ATAGGGTA	-0.142
GAGTCCTA	-0.316
AAGGTCAA	0.00615
AACTCCAC	-0.0479
GCAGAGCA	-0.0965
CTTGCGAC	-0.211
ATTTGGAA	0.109
TAATTCCA	0.2
CTAGGATC	-0.259
GACCAGGC	-0.182
ACGCTTAT	0.0731
CAATGGTC	0.00422
CAAATCCG	0.00808
AAGGGAAG	-0.0509
CTTGGTCC	-0.159
CACAACAG	-0.225
AGAATACG	0.0347
GAACACAC	-0.0869
CAGCAGGA	-0.0613
AACCGGGA	-0.16
AAAGGTTC	-0.125
TCAGTGCA	-0.111
ATCCGGGG	-0.182
AATTAACA	0.246
TGGCGACA	-0.0294

Sequence	PBM E-score
TAAAACTA	0.191
AGAAGTTC	-0.026
CTATACGC	-0.0306
CTGCTTCC	-0.297
GTCGAAAA	0.198
ATAATGGC	0.151
AATGCTCC	-0.269
CAACCTAG	-0.178
AGCCTGGG	-0.268
CAGTCCCA	-0.301
AAAGCATT	0.0425
CCATGCAA	0.166
GCGACTAC	-0.152
ACAACTCC	0.0467
ACTGGCTG	-0.19
GGGGGACC	-0.335
CGATCTAA	0.0176
AACCCAGT	-0.0547
AAGGTGTA	-0.131
CACTGCCA	0.153
AATCCAAG	0.00526
TCCGGACA	-0.147
TACCTATA	-0.0286
AAGTAAAA	0.148
CCGTACCC	0.042

Sequence	PBM E-score
CGCCGCCA	-0.08
AAAACCTA	0.117
GTTTAATA	0.202
AAGCCGAA	-0.0104
ACTGACTA	-0.0891
ACCTCTAT	-0.104
ATGATACC	0.167
AACGCTGC	-0.106
CAAATGTG	0.156
AGGGAGAT	-0.302
AAGTGAAC	-0.0953
GTGCTCCA	-0.0727
ACAAAAGC	0.115
GCACACAA	-0.0149
AAGTGTCA	0.0337
GCTCGTAA	0.0158
GCCACTAA	-0.0864
ACTCGGCA	-0.0585
AGCCGCCA	-0.338
TCACGGAA	0.139
AAGCATCC	-0.171
CGGGCTCA	-0.251
CTATTAAG	-0.0873
CGGAGACC	-0.147
CTGACAGA	0.0412

Sequence	PBM E-score
TATCAATA	0.113
AACCACAC	0.0763
ATTGGAAA	0.0732
AGTAAAAT	0.195
GCCTAACA	0.0301
GTACCTTA	-0.0192
CAATGCAA	0.0969
ACTGTGCT	-0.0588
ACCCGAGA	-0.142
AGACCCGG	-0.161
CGGTGAGA	0.0931
CAATACAC	0.0965
GGGCCTAC	-0.293
CACTGGCG	-0.00517
ATGTCCCG	-0.207
GCACCACC	-0.201
CCTACAAA	0.0648
GCCGTAGC	0.159
CGTCAGAG	0.365
